Experimental data published in publication doi:10.1101/2020.05.18.103002 (bioRxiv, 2020).
Where no end group is shown, it is not given here.

Molecular target: T1, FITC-conjugated PAK1 peptide (DIQDKPPAPPMRNTST) (also: FITC-conjugated, site not given here)
T1 peptide: DIQDKPPAPPMRNTST
Experiment: fluorescence polarisation

B1: NCK2 1|3|2 full length recombinant protein (SH3-shuffled, tag-free) (other)
chain: MTEEVIVIAKWDYTAQQDQELDIRKNERLWLLDDSKTWWRVRNAANRTGYVPSNYVERKNSLKKGSLVKNLKDTLGLGKTRRKPSARDASPTPSTDAEYPANGSGADRIYDLNHVVQTLYPFSSVTEEELSFEKGETMEVIEKPENDPEWWKCKNARGQVGLVPKNYVVVLSEAAAEAPSFLSLRRGTALSNGQGARVLIPAFVKFAYVAEREDELSLVKGSRVTVMEKCSDGWWRGSFNGQIGWFPSNYVLEEADDGPALHPAHTPQISYTGPSASGRFAGREWYYGNVTRHQAECALNERGVEGDFLIRDSESSPSDFSVSLKASGRNKHFKVQLVDSVYCIGQRRFHSMDELVEHYKKAPIFTSEHGEKLYLVRALQ
- fold decrease of binding against WT NCK2: ~2 fold
